According to PMC6919601, “Identification of Plasmodium dipeptidyl aminopeptidase allosteric inhibitors by high throughput screening” (PLoS ONE, 2019):
Among all 110,000 compounds or so, about 230 (0.21%) showed an effect of 50% or more. Some of the results follow.

Biological target: DPAP1 (Plasmodium falciparum, UniProt Q8IIJ9)
Assay: primary screen, percent inhibition; read by cleavage of a fluorogenic dipeptide substrate; higher = more effect of the substance
Design: species or system P. falciparum D10 trophozoite lysates; single well
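Further: 30 min substrate incubation versus DMSO and 10 µM JCP410 controls.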

Chain of DPAP1 (Q8IIJ9 whole entry, looked up): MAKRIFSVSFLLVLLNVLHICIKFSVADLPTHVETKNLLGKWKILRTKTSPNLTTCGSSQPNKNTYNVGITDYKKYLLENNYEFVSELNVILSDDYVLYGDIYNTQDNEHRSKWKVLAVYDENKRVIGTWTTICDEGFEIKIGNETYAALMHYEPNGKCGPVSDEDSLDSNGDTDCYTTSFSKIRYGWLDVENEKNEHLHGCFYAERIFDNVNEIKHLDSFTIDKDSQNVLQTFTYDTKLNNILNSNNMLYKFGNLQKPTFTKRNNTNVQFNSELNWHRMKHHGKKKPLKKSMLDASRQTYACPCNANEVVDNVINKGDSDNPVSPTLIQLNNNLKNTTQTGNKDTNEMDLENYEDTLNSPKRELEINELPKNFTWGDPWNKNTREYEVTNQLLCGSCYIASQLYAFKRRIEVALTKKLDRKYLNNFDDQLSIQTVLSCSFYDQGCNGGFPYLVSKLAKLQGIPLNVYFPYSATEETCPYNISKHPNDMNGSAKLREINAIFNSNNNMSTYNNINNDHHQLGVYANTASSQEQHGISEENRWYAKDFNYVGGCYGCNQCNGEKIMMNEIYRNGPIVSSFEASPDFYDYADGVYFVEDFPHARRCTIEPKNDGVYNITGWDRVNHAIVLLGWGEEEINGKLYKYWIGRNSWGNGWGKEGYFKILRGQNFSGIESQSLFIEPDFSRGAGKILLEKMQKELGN

SMILES	% Inhibition @ 10 uM
CC(=O)c1cc(F)c(N2CCN(C(=O)c3ccc(F)cc3)CC2)cc1C	0.214%
COc1ccc(NC(=O)C(Cc2ccccc2)N2C(=O)c3ccccc3C2=O)cc1 (centres unmarked)	2.02%
COc1cccc(CN2CCCC(C(=O)N3CCCCCC3)C2)c1OC (centres unmarked)	2.25%
CC(=O)Nc1ccc(NC(=O)Cc2ccccc2F)cc1	-2.09%
CC(=O)c1cccc(NS(=O)(=O)c2ccc(Cl)cc2)c1	-5.94%
CSc1nc(O)c2c(n1)N=C1CC(C)(C)CC(O)=C1C2c1cccs1 (centres unmarked)	2.67%
CCCC(=O)c1c(Nc2ccccc2C)cc(C)oc1=O	4.57%
Cc1[nH]c2ccccc2c1/C=C1\S/C(=N/c2cccc(C(=O)O)c2)N(C)C1=O	-9.65%
Cc1cc(C)n2nc(CNS(=O)(=O)c3cccc4nsnc34)nc2n1	-3.96%
Fc1ccccc1C1NCc2ccccc2-n2cccc21 (centres unmarked)	1.01%
N#Cc1c(NC(=O)CC2Sc3ccccc3NC2=O)sc2c1CCCC2 (centres unmarked)	-2.78%
Cc1sc(NC(=O)c2ccc(C(C)(C)C)cc2)c(C#N)c1C	3.62%
COc1cc(C)c(S(=O)(=O)NOCc2ccccc2)c(C)c1C	-6.62%
Cc1cccc(S(=O)Cc2ccc(C(=O)NCCc3ccccc3)o2)c1 (centres unmarked)	2.3%
CC1(C)CC(=O)C2=C(C1)OC1=C(C(=O)CC(C)(C)C1)C2c1cc2c(cc1Cl)OCO2	-2.97%
Cc1ccccc1NC(=O)CCC(=O)OC1CCC(C(C)(C)C)CC1 (centres unmarked)	4.54%
NC(=O)CS(=O)(=O)c1oc(-c2cccs2)nc1S(=O)(=O)c1ccc(F)cc1	-1.22%
COc1ccccc1/C=C/CN1CCCC1CO (centres unmarked)	-2.03%
O=C(NCc1cccnc1)c1cc(-c2ccccn2)nc2ccccc12	1.07%
CSc1nc(Oc2ccc(C)c(C)c2)cc(-n2nc(C)c(C#N)c2N)n1	0.121%
COc1ccc(NC(=O)/C(C#N)=C\c2c(C)[nH]c3ccccc23)cc1	-1.32%
CCOc1ccc(/C=C/C(=O)Nc2ncc(Cc3ccc(C)cc3)s2)cc1	20.8%
COc1ccc(OC)c(NC(=O)C2C3C4CCC(C4)C23)c1 (centres unmarked)	4.98%
CC1=C(C(=O)Nc2ccccc2)C(c2ccc(Br)cc2)N2C(=O)CSC2=N1 (centres unmarked)	8.19%
COc1ccccc1C1C2=C(O)CCCC2=Nc2ccc3ncccc3c21 (centres unmarked)	2.38%

SMILES	% Inhibition @ 10 uM
CC1=CC(C)C2COC(c3cccnc3)C1C2C (centres unmarked)	5.16%
CCOC(=O)N1CCN(C(=O)C(CC(C)C)NC(=O)C2CCCCC2)CC1 (centres unmarked)	-6.5%
CCC(=O)/N=C(\N)Nc1nc(C)c2ccc(C)cc2n1	-2.88%
CCSc1nnc(NC(=O)c2cccs2)s1	-0.034%
N#CC1C(=O)N=C(N2CCN(C(c3ccccc3)c3ccccc3)CC2)NC12CCCCC2 (centres unmarked)	-3.33%
CC(C)c1ccc(CNCCCSc2nnnn2-c2ccccc2)cc1	-1.11%
CC(=O)c1cccc(NC(=O)c2ccc(-c3ccc(Cl)cc3)o2)c1	15.5%
CCOc1cc(C2C3=C(O)CCCC3=NC3=C2C(=O)CCC3)cc(Cl)c1OCC(=O)O (centres unmarked)	2.7%
CC(NC(=O)Cn1cc(C(=O)C2CC2)c2ccccc21)c1ccccc1 (centres unmarked)	3.35%
CCOP(=O)(Cc1cccc(C(=O)O)c1)OCC	1.66%
O=C(Nc1ccccc1F)OCC1CCCN2CCCCC12 (centres unmarked)	2.49%
Cc1ccc(C)c(N(CC(=O)Nc2ccccc2)S(C)(=O)=O)c1	0.00477%
COc1ccc(C2C(C(=O)Nc3ccccc3)=C(C)N=c3s/c(=C/c4cnn(C)c4C)c(=O)n32)cc1 (centres unmarked)	1.34%
OC(COCc1ccccc1)CN1CCN(c2ccccc2F)CC1 (centres unmarked)	-6.2%
Oc1ccc(Br)cc1-c1nc2cc(Cl)cnc2[nH]1	3.48%
Cc1[nH]c(-c2ccc(F)cc2)cc1C(=O)NCCC(C)C	3.64%
COc1ccccc1/C=C1\C(=O)NC(=S)N(c2ccc(Cl)cc2)C1=O	-0.436%
O=C(O)CNC(=O)/C(=C\c1ccc2c(c1)OCO2)NC(=O)c1ccccc1	-1.5%
CC(=O)N(C)c1ccc(NC(=O)C2CC2)cc1	3.58%
C=CCn1c(C(C)O)nc2ccccc21 (centres unmarked)	1%
CC(NCc1c(C(=O)O)n(Cc2ccccc2)c2ccccc12)c1ccccc1 (centres unmarked)	1.93%
CN(C)C(=O)c1ccc(-n2nc(C(F)(F)F)c3c2CCCC3)cc1	-2.28%
COc1ccc(C2=NN(CCC(=O)NC3CCCC(C)C3C)C(=O)CC2)cc1 (centres unmarked)	1.62%
Cc1ccc2c(c1)-c1onc(C(=O)NCC3CCCO3)c1CO2 (centres unmarked)	-1.69%
CC(=O)C1=C(O)C(=O)N(c2nc3ccccc3s2)C1c1ccccc1 (centres unmarked)	1.52%
